# Experimental data from PubChem BioAssay AID651820 (National Center for Advancing Translational Sciences (NCATS), 2012).
# Hit rate of the full screen: of about 340,000 compounds, about 12,000 (3.5%) were called active. Inconclusive results, whose numbers are uncertain, are shown with a selection of clear calls. Calls come from the whole dose curve; as a rule, active = well fitted inhibition curve with a large enough effect; inconclusive = small, poorly fitted or top-dose-only effect, or another doubt; inactive = no such curve, though single readings can be large or run the other way. Potencies of inconclusive entries are left out as doubtful fits.
# Experiment: qHTS Assay for Inhibitors of Hepatitis C Virus (HCV)
# Details: Huh7.5.1 HCVcc-Cre (HCVcc is cell-culture hepatitis C virus) infection, luciferase reporter, 44 h; series mostly up to 41.8 µM
# Method in brief: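 After 44 h co-culture of compound, cells and HCVcc-Cre (~0.5 moi), substrate is added for 15 min at room temperature and luciferase measured over 15 sec. Cells were seeded at 1,000/well and pre-cultured 4 h.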
# Potency is the fitted concentration of half-maximal effect; tags give direction and shape of the fitted curve.
row,SMILES,Potency
1,CC1CCCC(NC(=O)c2cn(C)c3ccc(S(=O)(=O)N4CCCC4)cc3c2=O)C1C (configuration not stated),inactive
2,Cc1noc(C)c1COc1cccc(C(=O)OC(C)C(=O)Nc2ccc3c(c2)OCO3)c1 (configuration not stated),inactive
3,COc1ccc(C(CC(=O)N2CCOCC2)c2c(OC)cc(OC)c3c(-c4ccccc4)cc(=O)oc23)cc1 (configuration not stated),"inconclusive [inhibitor, full curve, poor fit]"
4,COc1ccccc1N(CC(=O)NCCSCc1ccc(C)cc1)S(=O)(=O)c1ccccc1,active: 12.6 µM
5,CCOc1ccc(N=C(C)C2=C(O)c3ccccc3C2=O)cc1,inactive
6,COc1ccc(CNC(=O)c2cc(COc3c(F)cccc3F)on2)cc1OC,"inconclusive [inhibitor, single point]"
7,CCN(CC)C(=O)c1cccc(NC(=O)CCc2nc3sc4c(c3c(=O)[nH]2)CCCC4)c1,"inconclusive [inhibitor, partial curve]"
8,Cn1c(SCC(=O)N2c3ccccc3Sc3ccc(Cl)cc32)nnc1-c1ccco1,"inconclusive [inhibitor, single point]"
9,Cc1cccc(-c2nc3c(c(SCC(=O)N4CCOCC4)n2)Cc2c(CO)cnc(C)c2O3)c1,active: 11.2 µM
10,Cc1ccc2nc3c(cc(C(=O)NCCc4ccccc4)c(=N)n3CCCN3CCOCC3)c(=O)n2c1,"inconclusive [inhibitor, partial curve]"
11,CCc1cc2c(COC(=O)c3cccc(NS(C)(=O)=O)c3)cc(=O)oc2cc1O,"inconclusive [inhibitor, partial curve, poor fit]"
12,COc1cccc(NC(=O)N2CCCC2C(=O)NCc2ccc(Cl)cc2)c1 (configuration not stated),inactive
13,Clc1ccc2c(NCCNC3CCCCC3)ccnc2c1,active: 7.94 µM
14,CN(CC(=O)Nc1cccc(F)c1)C(=O)CN1c2cccc3cccc(c23)S1(=O)=O,"inconclusive [inhibitor, single point]"
15,Cn1c(=O)c(C(=O)CSc2ccccc2)c(N)n(Cc2ccccc2)c1=O,"inconclusive [inhibitor, single point]"
16,COc1ccc(CCNc2cc(C)nc3c(-c4ccc(Cl)cc4)cnn23)cc1OC,"inconclusive [inhibitor, partial curve]"
17,COc1ccc(CN(C)C(=O)COC(=O)c2c(C)nn(-c3ccc(F)cc3)c2Cl)cc1,"inconclusive [inhibitor, partial curve]"
18,COc1cccc(CN2CCC(C(=O)Nc3ccc(Oc4cccnc4)cc3)CC2)c1,"inconclusive [inhibitor, partial curve]"
19,O=Cc1cc(OCc2ccccc2)ccc1[B-](F)(F)F,"inconclusive [inhibitor, partial curve, poor fit]"
20,O=C1C=C(Nc2ccccc2O)c2ccccc2C1=O,"inconclusive [inhibitor, full curve, poor fit]"
21,Cc1cc(C)c(C(=O)COC(=O)c2ccc(NC(=O)CC#N)cc2)cc1C,"inconclusive [inhibitor, single point]"
22,COc1ccc(NC(=O)Nc2ccc(F)c(Cl)c2)cc1,"inconclusive [inhibitor, single point]"

row,SMILES,Potency
1,O=C(CCSc1ccccc1)N1CCN(c2ccccc2)CC1,"inconclusive [inhibitor, single point]"
2,CCN(CC)C(=O)[C@H]1CC(CC(=O)NCc2cccc(C(F)(F)F)c2)C(=O)N2CCc3c([nH]c4ccc(OC)cc34)[C@]12C (some centres not stated),"inconclusive [inhibitor, partial curve]"
3,Cc1nc([N+](=O)[O-])c(Br)n1CC(=O)c1ccc2ccccc2c1,active: 10 µM
4,Cc1ccc2c(c1)CCCN2C(=O)CCc1nc2ccccc2c(=O)[nH]1,"inconclusive [inhibitor, partial curve, poor fit]"
5,CCn1c(SCc2ccccc2Cl)nc2ccccc21,"inconclusive [inhibitor, single point]"
6,C[C@@]12C(=O)OC(=O)[C@]1(C)C1CCC2O1,active: 0.501 µM
7,CCOC(=O)c1c(CSC(=N)N)n(-c2ccccc2)c2cc(Br)c(OC(C)=O)cc12,inactive
8,O=C(Nc1ccc2oc(=O)ccc2c1)c1ccc(-c2cccc([N+](=O)[O-])c2)o1,active: 8.91 µM
9,CN(C)C(=O)CSc1n[nH]c(=O)[nH]c1=O,inactive
10,COc1ccc(CCNC(=O)Cc2cc3c(cc2[N+](=O)[O-])OCO3)cc1OC,inactive
11,COc1ccc(CCNC(=O)CCCOc2ccc(Cl)cc2)cc1OC,"inconclusive [inhibitor, single point]"
12,CCC1CCc2sc(C(=O)NCC3CCCO3)cc2C1 (configuration not stated),inactive
13,C/C(=N\NC(N)=S)c1cc(-c2ccccc2)c(-c2ccccc2)s1,active: 6.31 µM
14,CC(=O)N1CCN(c2ccc(NCc3ccc(F)cc3)cc2)CC1,"inconclusive [inhibitor, partial curve]"
15,CCN1C(=O)CC(N2CCC(Nc3ccc(F)cc3)CC2)C1=O (configuration not stated),inactive
16,COc1ccc(CCNC(=O)c2nonc2N)cc1OC,inactive
17,COc1ccccc1/C=C/c1nc(S(=O)(=O)c2ccccc2)c(N(C)C)o1,"inconclusive [inhibitor, single point]"
18,COCCn1c(=S)[nH]c2cc(C(=O)N3CCN(c4cccc(Cl)c4)CC3)ccc2c1=O,"inconclusive [inhibitor, single point]"
19,CCOc1ccc2cc(C#N)c(SCC(=O)N3CCOCC3)nc2c1,"inconclusive [inhibitor, single point]"
20,COc1cc(Cl)c(C)cc1NC(=O)CN1CCN(C(=O)C2CC2)CC1,"inconclusive [inhibitor, partial curve]"
21,c1ccc(-c2noc(CN3CCc4sccc4C3)n2)cc1,"inconclusive [inhibitor, single point]"
22,O=C(/C=C/c1ccccn1)c1cc(Br)ccc1O,"inconclusive [inhibitor, single point]"

row,SMILES,Potency
1,COc1ccccc1N1CCN(C(=O)c2ccc3c(=O)n4c(nc3c2)CCCCC4)CC1,inactive
2,C=CCc1cccc(C2Nc3ccccc3C(=O)N2O)c1O (configuration not stated),inactive
3,OC(CN1CCN(c2ccccn2)CC1)Cn1c2ccc(Cl)cc2c2cc(Cl)ccc21 (configuration not stated),inactive
4,CC(/C=C/c1ccc2c(c1)OCO2)=N\NC(=O)COc1ccccc1C,"inconclusive [inhibitor, single point]"
5,CC(=O)Nc1ccc(S(=O)(=O)N2CCN(c3cccc(C)c3C)CC2)cc1,"inconclusive [inhibitor, single point]"
6,COc1ccc2oc(C(=O)OCC(=O)N(CC(C)C)c3c(N)n(Cc4ccccc4)c(=O)[nH]c3=O)c(C)c2c1,"inconclusive [inhibitor, single point]"
7,CCOC(=O)[C@]12Cc3c(cc(OC)c(OC)c3OC)[C@H]1N(Cc1ccccc1)C(=O)c1ccccc12,inactive
8,CC(C)c1ccc(OCC(=O)Nc2ccccc2C(=O)N2CCOCC2)cc1,inactive
9,O=c1sc(N2CCN(c3ccccc3F)CC2)nc2ccsc12,"inconclusive [inhibitor, single point]"
10,COc1cccc(CN2CCN(C3CCN(c4ccccc4C)CC3)CC2CCO)c1 (configuration not stated),inactive
11,COc1cc(/C=N/N=C(\N)c2nonc2N)cc(OC)c1O,inactive
12,C#CCOCCOCCOCCNc1nc(N2CCN(C(=O)[C@H](CCCN=C(N)N)n3cc(C(N)[C@@H](C)CC)nn3)CC2)nc(N2CCN(C(=O)[C@H](CCCCN)n3cc([C@@H](N)CC(N)=O)nn3)CC2)n1 (some centres not stated),"inconclusive [inhibitor, single point]"
13,O=C(CSc1nnc(-c2cccnc2)o1)c1cc2ccccc2oc1=O,"inconclusive [inhibitor, single point]"
14,CCOc1ccc(S(=O)(=O)Nc2cccc(C(=O)NCC3(N4CCCCC4)CCCCC3)c2)cc1,active: 12.6 µM
15,COc1ccc(C2NC(c3ccc(OC)cc3OC)C(C)C(=O)C2C)c(OC)c1 (configuration not stated),inactive
16,Cc1ccc(OCc2cc(C(=O)NCc3ccc(OC(F)(F)F)cc3)no2)cn1,"inconclusive [inhibitor, single point]"
17,CCOc1ccccc1CN1CCCC(C(=O)Nc2cccc(-n3cccn3)c2)C1 (configuration not stated),"inconclusive [inhibitor, single point]"
18,CN(C)S(=O)(=O)c1cccc(NC(=O)C2CCN(S(=O)(=O)c3cccs3)CC2)c1,"inconclusive [inhibitor, single point]"
19,CN(c1ccccc1)S(=O)(=O)c1ccc(NC(=O)c2cccs2)cc1,"inconclusive [inhibitor, single point]"
20,Cc1cc(NCc2ccccc2)c2ccccc2n1,active: 11.2 µM
21,CC1CCCCC1NC(=O)COC(=O)c1ccc2c(c1Cl)C(=O)c1ccccc1C2=O (configuration not stated),active: 25.1 µM
22,CC(=O)c1cc(C#N)c(NCCCN(C)C)nc1C,"inconclusive [inhibitor, partial curve]"

row,SMILES,Potency
1,O=C(CCCCCn1c(=S)[nH]c2ccc(Br)cc2c1=O)NCC1CCCO1 (configuration not stated),"inconclusive [inhibitor, full curve]"
2,CN1CCN(C2=Cc3ccccc3Sc3cc(F)ccc32)CC1,"inconclusive [inhibitor, single point]"
3,COc1ccc(/C=N/NC(=O)c2cccc(C(F)(F)F)c2)cc1,inactive
4,CCN(CC)CCSc1nnc2c3cc(F)ccc3n(Cc3ccccc3)c2n1,"inconclusive [inhibitor, partial curve]"
5,Cc1cccc(NC(=S)N(Cc2cccs2)Cc2cc3cc(C)cc(C)c3[nH]c2=O)c1,"inconclusive [inhibitor, partial curve]"
6,COC(=O)N/N=C/c1sc(N2CCCCC2)nc1-c1cccs1,"inconclusive [inhibitor, single point]"
7,c1ccc(-c2csc3ncnc(NCCN4CCOCC4)c23)cc1,active: 11.2 µM
8,CCn1c(/C=C/c2ccc(F)cc2)nc2ccccc2c1=O,inactive
9,Cc1ccc(CN(Cc2ccco2)C(=S)Nc2ccccc2C)cc1,"inconclusive [inhibitor, single point]"
10,COc1ccc(-n2cc(CNCc3cnc4ccccn34)c(-c3cccc(F)c3)n2)cc1,"inconclusive [inhibitor, single point]"
11,CCOC(=O)CCCc1c[nH]c2ccccc12,"inconclusive [inhibitor, single point]"
12,O=C(NC12CC3CC(CC(C3)C1)C2)c1ccc(-c2ccc(Br)cc2)o1,"inconclusive [inhibitor, single point]"
13,O=[N+]([O-])c1cc(/C=N/NC(=S)Nc2ccccc2Cl)ccc1Cl,"inconclusive [inhibitor, single point]"
14,O=C(NC1CC1)c1cccc(Nc2ccc(-c3ccc4c(c3)OCCO4)nn2)c1,active: 10 µM
15,S=C(Nc1cccc2ccccc12)NC1CCCCC1,"inconclusive [inhibitor, single point]"
16,O=C(c1c(F)cccc1F)N(Cc1ccccn1)C1CC1,inactive
17,CCN(CC)CCNc1nc(-c2ccccc2)c2c(c1C#N)CC(C)(C)OC2,"inconclusive [inhibitor, full curve, poor fit]"
18,COCCCNC(=O)c1ccc(Cn2c(=O)c3ccccc3n(CC(=O)NCc3ccco3)c2=O)cc1,"inconclusive [inhibitor, partial curve, poor fit]"
19,CCOC(=O)C1(Cc2ccc(Cl)cc2)CCN(C2CCC2)CC1,"inconclusive [inhibitor, partial curve]"
20,O=C(c1cc([N+](=O)[O-])ccc1N1CCCCC1)N1CCc2ccccc21,"inconclusive [inhibitor, partial curve]"
21,O=C(NC(=S)Nc1ccccc1N1CCOCC1)c1ccc(Br)cc1,"inconclusive [inhibitor, single point]"
